Assay results: the supplement of paper PMC12217912
Some of the results follow. The full chains were built here from the parent and the listed change. Values near 0.05 are background.

B1: TEV protease; numbered along this chain (parent)
chain: MGESLFKGPRDYNPISSSICHLTNESDGHTTSLYGIGFGPFIITNKHLFRRNNGTLVVQSLHGVFKVKDTTTLQQHLVDGRDMIIIRMPKDFPPFPQKLKFREPQREERICLVTTNFQTKSMSSMVSDTSCTFPSGDGIFWKHWIQTKDGQCGSPLVSTRDGFIVGIHSASNFTNTNNYFTSVPKNFMELLTNQEAQQWVSGWRLNADSVLWGGHKVFMVKPEEPFQPVKEATQL

Variants of: B1
Experiment: raw area under fraction-flipped curve 0-4 h after induction (AUC4h, not background-subtracted), DNA-recorder readout of cleavage of the substrate (dimensionless); higher = more cleavage of the substrate by the protease variant
Settings: temperature: 34 °C; time window: 0-4 h after rhamnose induction
Experimental: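 In vivo DNA recorder in E. coli TOP10(DE3) ΔrhaA at 34 °C. Each TEVp single-site mutant (parent TEVp 0) is paired with a single-site variant of the 7-mer TEVs (canonical ENLYFQ|S). The substrate sits between flexible linkers in a Bxb1-sfGFP-TEVs-SsrA fusion, so cleavage stabilises Bxb1 and speeds flipping of a recombination array, read by NGS. The value is the raw area under the fraction-flipped curve over 0-4 h after rhamnose induction (AUC4h), with ≥20 reads per time point. It is not background-subtracted; inactive controls average about 0.047.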
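Note: Bxb1 expression induced with 0.2% (w/v) L-rhamnose at OD600 near 0.5, cultures sampled hourly, flipped fraction per protease–substrate barcode pair counted by paired-end Illumina sequencing.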

| Variant | area with substrate ENAYFQS | area with substrate ENDYFQS | area with substrate ENEYFQS | area with substrate ENFYFQS | area with substrate ENIYFQS | area with substrate ENKYFQS | area with substrate ENPYFQS | area with substrate ENQYFQS | area with substrate ENTYFQS | area with substrate ENWYFQS | area with substrate ENGYFQS | area with substrate ENHYFQS | area with substrate ENNYFQS | area with substrate ENSYFQS | area with substrate ENVYFQS | area with substrate ENYYFQS | area with substrate ENCYFQS | area with substrate ENRYFQS | area with substrate ENMYFQS |
| --- | --- | --- | --- | --- | --- | --- | --- | --- | --- | --- | --- | --- | --- | --- | --- | --- | --- | --- | --- |
| MGESLFKGPRDYNPISSSICHLTNESDGHTTSLYGIGFGPFIITNKHLFRRNNGTLVVQSLHGVFKVKDTTTLQQHLVDGRDMIIIRMPKDFPPFPQKLKFREPQREERICLVTTNFQTKSMSSMVSDTSCTFPSGDGIFWKHWIQTKDGQCGSPLYSTRDGFIVGIHSASNFTNTNNYFTSVPKNFMELLTNQEAQQWVSGWRLNADSVLWGGHKVFMVKPEEPFQPVKEATQL [V157Y] | 0.0391 | 0.057 | 0.0643 | 0.0565 | 0.0698 | 0.0554 | 0.0484 | 0.0553 | 0.0542 | 0.0413 |  |  |  |  |  |  |  |  |  |
| MGESLFKGPRDYNPISSSICHLTNESDGHTTSLYGIGFGPFIITNKHLFRRNNGTLVVQSLHGVFKVKDTTTLQQHLVDGRDMIIIRMPKDFPPFPQKLKFREPQREERICLVTTNFQTKSMSSMVSDTSCTFPSGDGIFWKHWIQTKDGQCGSPLVMTRDGFIVGIHSASNFTNTNNYFTSVPKNFMELLTNQEAQQWVSGWRLNADSVLWGGHKVFMVKPEEPFQPVKEATQL [S158M] | 0.0473 |  | 0.0285 | 0.0552 |  | 0.0556 |  | 0.0445 | 0.0328 |  | 0.0352 | 0.06 | 0.0676 | 0.0708 | 0.0525 | 0.0479 |  |  |  |
| MGESLFKGPRDYNPISSSICHLTNESDGHTTSLYGIGFGPFIITNKHLFRRNNGTLVVQSLHGVFKVKDTTTLQQHLVDGRDMIIIRMPKDFPPFPQKLKFREPQREERICLVTTNFQTKSMSSMVSDTSCTFPSGDGIFWKHWIQTKDGQCGSPLVWTRDGFIVGIHSASNFTNTNNYFTSVPKNFMELLTNQEAQQWVSGWRLNADSVLWGGHKVFMVKPEEPFQPVKEATQL [S158W] | 0.0494 | 0.0613 | 0.0487 | 0.0585 | 0.056 |  |  | 0.0448 | 0.0486 |  | 0.0567 | 0.0412 | 0.0324 | 0.0495 | 0.0555 | 0.0587 | 0.0542 | 0.0433 |  |
| MGESLFKGPRDYNPISSSICHLTNESDGHTTSLYGIGFGPFIITNKHLFRRNNGTLVVQSLHGVFKVKDTTTLQQHLVDGRDMIIIRMPKDFPPFPQKLKFREPQREERICLVTTNFQTKSMSSMVSDTSCTFPSGDGIFWKHWIQTKDGQCGSPLVSRRDGFIVGIHSASNFTNTNNYFTSVPKNFMELLTNQEAQQWVSGWRLNADSVLWGGHKVFMVKPEEPFQPVKEATQL [T159R] | 0.0512 |  | 0.068 |  |  |  |  | 0.0468 |  | 0.0304 |  | 0.062 |  | 0.0588 |  | 0.05 | 0.0828 | 0.0603 |  |
| MGESLFKGPRDYNPISSSICHLTNESDGHTTSLYGIGFGPFIITNKHLFRRNNGTLVVQSLHGVFKVKDTTTLQQHLVDGRDMIIIRMPKDFPPFPQKLKFREPQREERICLVTTNFQTKSMSSMVSDTSCTFPSGDGIFWKHWIQTKDGQCGSPLVSTREGFIVGIHSASNFTNTNNYFTSVPKNFMELLTNQEAQQWVSGWRLNADSVLWGGHKVFMVKPEEPFQPVKEATQL [D161E] | 0.0169 | 0.059 | 0.0649 | 0.058 | 0.0821 |  | 0.0646 | 0.0523 | 0.0457 |  | 0.069 | 0.0558 |  | 0.0681 | 0.061 |  | 0.0653 | 0.0412 | 0.0708 |
| MGESLFKGPRDYNPISSSICHLTNESDGHTTSLYGIGFGPFIITNKHLFRRNNGTLVVQSLHGVFKVKDTTTLQQHLVDGRDMIIIRMPKDFPPFPQKLKFREPQREERICLVTTNFQTKSMSSMVSDTSCTFPSGDGIFWKHWIQTKDGQCGSPLVSTRDGFKVGIHSASNFTNTNNYFTSVPKNFMELLTNQEAQQWVSGWRLNADSVLWGGHKVFMVKPEEPFQPVKEATQL [I164K] | 0.0617 |  | 0.0437 |  |  |  |  |  |  |  |  |  |  |  | 0.0601 | 0.0276 |  |  |  |
| MGESLFKGPRDYNPISSSICHLTNESDGHTTSLYGIGFGPFIITNKHLFRRNNGTLVVQSLHGVFKVKDTTTLQQHLVDGRDMIIIRMPKDFPPFPQKLKFREPQREERICLVTTNFQTKSMSSMVSDTSCTFPSGDGIFWKHWIQTKDGQCGSPLVSTRDGFRVGIHSASNFTNTNNYFTSVPKNFMELLTNQEAQQWVSGWRLNADSVLWGGHKVFMVKPEEPFQPVKEATQL [I164R] | 0.0467 | 0.0547 | 0.0605 | 0.055 |  |  |  | 0.0573 | 0.0534 | 0.0283 | 0.058 | 0.0365 | 0.0587 | 0.0481 | 0.0534 | 0.0546 | 0.0477 |  |  |
| MGESLFKGPRDYNPISSSICHLTNESDGHTTSLYGIGFGPFIITNKHLFRRNNGTLVVQSLHGVFKVKDTTTLQQHLVDGRDMIIIRMPKDFPPFPQKLKFREPQREERICLVTTNFQTKSMSSMVSDTSCTFPSGDGIFWKHWIQTKDGQCGSPLVSTRDGFSVGIHSASNFTNTNNYFTSVPKNFMELLTNQEAQQWVSGWRLNADSVLWGGHKVFMVKPEEPFQPVKEATQL [I164S] | 0.0543 | 0.0913 | 0.0595 | 0.0605 | 0.0547 | 0.0629 |  | 0.067 | 0.048 | 0.0385 | 0.0672 | 0.0599 | 0.06 | 0.0576 | 0.0543 | 0.0596 |  | 0.0544 | 0.0517 |
| MGESLFKGPRDYNPISSSICHLTNESDGHTTSLYGIGFGPFIITNKHLFRRNNGTLVVQSLHGVFKVKDTTTLQQHLVDGRDMIIIRMPKDFPPFPQKLKFREPQREERICLVTTNFQTKSMSSMVSDTSCTFPSGDGIFWKHWIQTKDGQCGSPLVSTRDGFIVGHHSASNFTNTNNYFTSVPKNFMELLTNQEAQQWVSGWRLNADSVLWGGHKVFMVKPEEPFQPVKEATQL [I167H] | 0.056 |  | 0.0436 | 0.057 |  |  |  |  |  | 0.0572 | 0.0973 |  |  |  |  |  | 0.0419 | 0.0758 |  |
| MGESLFKGPRDYNPISSSICHLTNESDGHTTSLYGIGFGPFIITNKHLFRRNNGTLVVQSLHGVFKVKDTTTLQQHLVDGRDMIIIRMPKDFPPFPQKLKFREPQREERICLVTTNFQTKSMSSMVSDTSCTFPSGDGIFWKHWIQTKDGQCGSPLVSTRDGFIVGNHSASNFTNTNNYFTSVPKNFMELLTNQEAQQWVSGWRLNADSVLWGGHKVFMVKPEEPFQPVKEATQL [I167N] | 0.0576 | 0.0537 | 0.0607 | 0.0423 | 0.0521 |  |  | 0.0565 |  | 0.0548 | 0.0628 |  | 0.0491 | 0.0666 | 0.056 |  | 0.0544 |  | 0.0552 |
